Measured values published in PubChem BioAssay AID894 (National Center for Advancing Translational Sciences (NCATS), 2007).
Values joined by “and” are separate entries in the source; they are usually repeats but may differ in a detail not shown here. Equal entries are not always repeated. Screen size: about 150,000 compounds; about 6,500 (4.3%) were called active. This list was built around the results that the source calls inconclusive (neither active nor inactive); the mix of calls is not that of the screen. The call rests on the fitted dose curve; in most records, active means well fitted inhibition curve with a large enough effect (not every such curve was filed as active); inconclusive means small, poorly fitted or top-dose-only effect, or another doubt; inactive means no such curve, though single readings can be large or run the other way. No potency is given beside an inconclusive call; the fits are too rough.

target: 15-hydroxyprostaglandin dehydrogenase [NAD(+)] (Homo sapiens) (UniProt P15428); experiment: qHTS Assay for Inhibitors of HPGD (15-Hydroxyprostaglandin Dehydrogenase); settings: purified HPGD, NADH fluorescence kinetic, PGE2 substrate; activity change, negative = inhibition: hits give low values
How it was run: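 NADH formation kinetics: reaction with 30 uM PGE2 and 1 mM NAD+ (final), 20 nM enzyme, Tris-HCl pH 8 with Tween 20, after 15 min compound preincubation at room temperature. Fluorescence change, last versus first of five reads.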
On the % scale 0 is the no-effect control and ±100 the full control effect; potency means the concentration at half of the fitted maximal effect; tags describe the fitted curve by direction and shape.

Sequence of UniProt P15428 (P15428 whole entry, looked up): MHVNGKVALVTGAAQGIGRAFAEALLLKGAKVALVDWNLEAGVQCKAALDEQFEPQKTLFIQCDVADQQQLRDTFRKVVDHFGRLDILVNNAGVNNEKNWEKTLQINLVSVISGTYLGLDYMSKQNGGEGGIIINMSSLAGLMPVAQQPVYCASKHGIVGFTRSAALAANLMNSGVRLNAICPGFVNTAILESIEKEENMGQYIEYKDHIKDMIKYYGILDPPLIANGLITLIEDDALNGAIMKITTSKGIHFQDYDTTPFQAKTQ

SMILES	Potency	activity change, negative = inhibition
CC(C)(C)c1ccc(S(=O)(=O)N(CCCN2CCOCC2)Cc2cccs2)cc1	active: 25.1 µM	
Cc1cc(=O)oc2cc(OCC(=O)NCc3ccccn3)ccc12	inconclusive [inhibitor, partial curve]	
CCC1CSC(Nc2ccc(C(=O)/C=C/c3ccc(OC)c(OC)c3)cc2)=N1 (stereo unspecified)	active: 17.8 µM	
COC(=O)C1CSc2[nH]c(=O)sc2C1c1ccc(O)c(OC)c1 (stereo unspecified)	inconclusive [inhibitor, single point]	
Cc1noc(C)c1C(=O)N1CCC2(CC1)CCN(c1ncccn1)CC2		inactive: -29.6%
COCC(=O)N1CCC2(CCCN(C(c3ccccc3)c3ccccc3)C2)CC1		inactive: -11.3%
CCCCc1nc2c(c3c1C[C@H](C)OC3)CN(S(=O)(=O)c1ccc(C#N)cc1)CC2		inactive: -3.88%
CCOc1ccc2nc(SCCNS(=O)(=O)c3ccccc3)sc2c1		inactive: -3.91%
COc1cccc(-c2nn(C)c3sc(C(=O)NCc4ccccn4)cc23)c1	inconclusive [inhibitor, partial curve]	
O=C(N/N=C/c1cc2ccccc2nc1Cl)/C(=C/c1cccs1)NC(=O)c1ccccc1	inconclusive [inhibitor, partial curve]	
C=C(C)COc1ccc(-c2[nH]ncc2-c2ccccc2OC)c(O)c1		inactive: -23%
CCN(CC)S(=O)(=O)c1ccc(C(=O)OCC(=O)Nc2ccc(-c3nc4ccc(C)cc4s3)cc2)cc1	inconclusive [inhibitor, partial curve]	
CCN(CC)C(=O)c1sc2[nH]c(=S)n(-c3ccccc3)c(=O)c2c1C	active: 28.2 µM	
COc1ccc(C2C3=C(CC(C)(C)CC3=O)Nc3c2c(=O)[nH]c(=O)n3Cc2ccccc2)cc1OC (stereo unspecified)	inconclusive [inhibitor, single point]	
CN(CC(=O)Nc1sccc1C#N)Cc1ccccc1	inconclusive [inhibitor, partial curve, poor fit]	
CCn1c(-c2csc(-c3ccccc3)n2)n[nH]c1=S	inconclusive [inhibitor, partial curve]	
Cc1ccc(Nc2ncnc3c2oc2ccccc23)cc1	inconclusive [inhibitor, partial curve]	
CCOc1ccc(NC(=S)Nc2ccc3nsnc3c2)cc1	active: 28.2 µM	
Cc1ccc(S(=O)(=O)Oc2cccc(/C=N/n3cnnc3)c2)cc1	inconclusive [inhibitor, partial curve]	
CC(C)(OC1OC(CO)C(O)C(O)C1O)[C@H]1Oc2ccc3ccc(=O)oc3c2[C@H]1O (stereo partly specified)	inconclusive [inhibitor, partial curve]	
COC(=O)c1[nH]c2ccc(C)cc2c1NC(=O)CN1CCN(c2ccccc2)CC1	inconclusive [inhibitor, single point]	
Oc1cc2c(cc1O)[C@H]1c3ccc(O)c(O)c3OC[C@@]1(O)C2	active: 10 µM and active: 12.6 µM	
CCOC(=O)c1c(-c2ccc(C)o2)csc1NC(=S)NC(=O)c1cccs1	inconclusive [inhibitor, partial curve]	
N#C/C(C(=O)N1CCCCC1)=C1/N=C(N)c2ccccc21	active: 14.1 µM	

SMILES	Potency	activity change, negative = inhibition
Cc1ccccc1C(=O)Nc1ccccc1	inconclusive [inhibitor, partial curve]	
CC(Sc1nc(N2CCOCC2)c2c(c1C#N)CC(C)(C)OC2)C(=O)Nc1ccccc1 (stereo unspecified)	inconclusive [inhibitor, partial curve]	
COc1ccc(Cl)cc1-c1ccc(C(=O)O)o1	inconclusive [inhibitor, partial curve]	
CCCOc1ccc(N2C(=O)CC(SC(=NCC)Nc3cccc(F)c3)C2=O)cc1 (stereo unspecified)		inactive: -12.2%
COc1ccc(Nc2ncnc3scc(-c4ccc(OC)cc4)c23)cc1	inconclusive [inhibitor, partial curve]	
CCn1c(SCC(=O)N2CCN(c3ccccc3)CC2)nnc1-c1ccncc1	active: 20 µM	
CNC(=O)c1sc(-c2ccc(Cl)cc2)nc1C		inactive: -9.77%
COCCCNC(=O)c1c(N)n(-c2cccc(S(N)(=O)=O)c2)c2nc3ccccc3nc12	inconclusive [inhibitor, partial curve]	
Cc1c(NS(=O)(=O)c2ccccc2)cc(Cl)c(O)c1C	active: 31.6 µM	
O=C(Nc1ccc(Nc2ccccc2)cc1)N1CCOCC1	inconclusive [inhibitor, full curve, poor fit]	
CCN(CC)S(=O)(=O)c1ccc(N2CCOCC2)c(NC(=O)c2ccc3ccccc3c2)c1	inconclusive [inhibitor, partial curve]	
O=C(NNC(=O)c1ccc([N+](=O)[O-])cc1)c1ccncc1		inactive: -0.638%
O=S(=O)(N/N=C\c1c(F)cccc1Cl)c1ccc(Cl)cc1	inconclusive [inhibitor, partial curve]	
COc1cc(C2NC(=O)C(C#N)=C(S)N2c2ccc(C)cc2)ccc1OC(C)C (stereo unspecified)	active: 25.1 µM	
CCOC(=O)CC(=O)CSc1nc2c(cc1C#N)CCCCC2	inconclusive [inhibitor, partial curve]	
COc1ccc(C2=NCC(CSc3nnc(-c4ccc5c(c4)OCO5)o3)S2)cc1 (stereo unspecified)	active: 22.4 µM	
CN(Cc1cccc(F)c1)C(=O)c1ccc(S(=O)(=O)C(F)F)cc1	active: 31.6 µM	
Cc1cc(C)cc(-n2c3nc4ccccc4nc3c3c(=O)n(Cc4ccco4)cnc32)c1	inconclusive [inhibitor, partial curve]	
COc1ccc(N/C=C2/CCCCC2=O)cc1	active: 25.1 µM	
O=C1Cc2cccc3cccc1c23	inconclusive [inhibitor, partial curve]	
C=CCc1c(C)nc(SC)nc1Nc1ccc(C(=O)O)cc1		inactive: -19.8%
O=C(NCc1ccc2c(c1)OCO2)c1cccc(F)c1	active: 15.8 µM	
COC(=O)N1CCN(c2ccc(C(C)=O)cc2)CC1		inactive: -14.6%
CCOc1ccccc1C(=O)Nc1cc(OC)ccc1OC	inconclusive [inhibitor, single point]	

SMILES	Potency	activity change, negative = inhibition
CCOC(=O)C1=C(C)c2ccccc2N(C(=O)OC)C1(C)C(=O)OCC (stereo unspecified)	inconclusive [inhibitor, single point]	
COc1ccc(OC)c(S(=O)(=O)N2CCC(C(=O)NCC3CCCO3)CC2)c1 (stereo unspecified)		inactive: -9.71%
C=CCn1c(CCNC(=O)c2cccs2)nnc1SCC(=O)c1ccc(Br)cc1	inconclusive [inhibitor, single point]	
COc1ccc(-c2nnc(SCC(=O)N3CCc4ccccc4C3)o2)cc1	inconclusive [inhibitor, single point]	
C=CCOc1c2ccc(C(=O)NCc3ccccc3OC)cc2nn1C	inconclusive [inhibitor, partial curve]	
CCc1nnc(NC(=O)CSc2nnc(CNc3ccc(F)cc3)n2C2CCCCC2)s1		inactive: -8.74%
O=c1oc2cc(O)ccc2cc1-c1ccc2c(c1)OCCO2	inconclusive [inhibitor, partial curve]	
CCNc1cc2n(c(=O)n1)CCc1cc(OC)c(OC)cc1-2	inconclusive [inhibitor, partial curve]	
Nc1nc(SCC(=O)Nc2ccccc2)[nH]c(=O)c1-c1ccccc1		inactive: 0.623%
COc1ccc(-c2ccc(-c3nnn(CC(=O)N4CCOCC4)n3)cc2)cc1	inconclusive [inhibitor, partial curve]	
COc1ccc(-c2cn3cccnc3n2)cc1NC(=O)c1cccs1	inconclusive [inhibitor, single point]	
COCCNc1nc2ccccc2nc1NS(=O)(=O)c1ccc(C)cc1C	inconclusive [inhibitor, single point]	
CN(C)C=Nc1ccc2nn(-c3ccccc3)nc2c1	inconclusive [inhibitor, partial curve]	
Cc1ccc(OCCN2C(=O)c3ccccc3C2=O)cc1	inconclusive [inhibitor, partial curve]	
COC(=O)c1sccc1NC(=O)c1cc(OC)cc(OC)c1	inconclusive [inhibitor, partial curve]	
Cc1cc(C)nc(SCc2ccccc2C#N)n1		inactive: -12.7%
O=C(NCc1cccnc1)c1cc2ccccc2oc1=O	inconclusive [inhibitor, single point]	
Cc1nn(-c2ccccc2)c(C)c1/C=C/C(=O)OCC(=O)Nc1ncc(Cl)cc1Cl	inconclusive [inhibitor, single point]	
O=C(COc1ccccc1)N1CCN(C(=O)c2cccc(F)c2)CC1		inactive: -1.46%
COc1ccc(S(=O)(=O)Nc2ccc(Oc3ncccn3)c(Cl)c2)cc1	active: 14.1 µM	
N#Cc1ccccc1OCC(=O)Nc1c(C(=O)C2CC2)oc2ccccc12	inconclusive [inhibitor, partial curve]	
Nc1ccc(-c2nc3ccc(C(=O)O)cc3s2)cc1	inconclusive [inhibitor, partial curve]	
NC(=O)c1ccc(NC(=O)COC(=O)CCCN2C(=O)c3cccc4cccc(c34)C2=O)cc1	inconclusive [inhibitor, single point]	
